About 340 (0.77%) of roughly 44,000 compounds were called active. Roughly 5% stayed inconclusive and do not appear here. Calls follow the shape of the dose curve; as a rule, active = well fitted inhibition curve with a large enough effect; inconclusive = small, poorly fitted or top-dose-only effect; inactive = flat fitted curve, though single readings scatter. The list shows a part of the results.
Assay: Acumen qHTS Assay for Inhibitors of the mTORC1 Signaling Pathway in MEF (Tsc2-/-, p53-/-) Cells: Sytravon;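 also: plate controls were DMSO for no effect and rapamycin for full effect; nearly all actives have a fitted effect of over 50% in size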
Conditions: phospho-rpS6 immunofluorescence/PI, 24 h; series mostly up to 38.3 µM; activity change, negative = inhibition: at the top concentration
Summary of the method: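 Plate MEFs (Tsc2-/-, p53-/-, empty vector) in DMEM/10% FBS; after 24 h add compound, incubate 24 h at 37 degree Celsius; fix in PFA/TX-100, block, stain phospho-rpS6 and 10 uM PI; scan at 488 nm; report % positive cells.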

Activity change, negative = inhibition, inactive:
NC(=O)C1CCN(C(=O)c2ccc3c(c2)N(Cc2cccc(Cl)c2)C(=O)c2ccccc2S3=O)CC1 (stereo not drawn) 0.919%
CCOC(=O)c1c(C)[nH]c(C)c1S(=O)(=O)NCC(=O)Nc1ccc(C)cc1C 5.2%
COc1ccc(CSc2nc3ccncc3n2CC(=O)Nc2cc(C)cc(C)c2)cc1 -3.81%
Cc1csc2nc(COC(=O)CNC(=O)c3ccc(F)cc3)cc(=O)n12 0.39%
Cc1ccc(Cl)cc1N1CCN(CCCNC(=O)Cn2ncc3c([nH]c4ccccc43)c2=O)CC1 -3.84%
Cc1ccc(C)c(NC(=O)CN(C)S(=O)(=O)c2cccc3cccnc23)c1 0.233%
Cc1ccc(C(=O)Nc2ccccc2C(=O)OCc2cc(=O)n3nc(C(C)C)sc3n2)cc1 0%
CCOc1ccccc1NC(=O)C1CCC(CNS(=O)(=O)c2ccc3c(c2)CCCC(=O)N3)CC1 (stereo not drawn) 0.724%
Cc1ccc(C)c(NC(=O)CSc2nc(-c3ccccc3)c(C#N)c(=O)[nH]2)c1 1.42%
CCc1cccc(C)c1Nc1c(-c2ccc(SC)cc2)nc2sccn12 1.29%
Cc1ccc(CNc2nc3ccc(Cl)cc3n3cnnc23)cc1 -7.36%
COC(=O)c1ccccc1NC(=O)C1=CC(c2ccc3c(c2)OCO3)=NS(=O)(=O)N1C -3.53%
COc1ccc(S(=O)(=O)c2c(Nc3c(C)cccc3C)sc(C(=O)c3ccc(F)cc3)c2N)cc1 -21%
CCOc1ccc(CCNC(=O)c2cccc(Nc3nc4ccccc4nc3-n3nc(C)cc3C)c2)cc1OCC 0.595%
O=C(CC1N=C2c3ccccc3N=C(SCc3ccc(F)cc3)N2C1=O)NC1CCCCC1 (stereo not drawn) -0.382%
Fc1ccc(-c2noc3ncnc(Nc4ccc(F)cc4F)c23)cc1 -3.43%
Cc1cccc(NC(=O)Cn2c(=O)n(Cc3ccccc3)c(=O)c3sc4ccccc4c32)c1 -5.26%
CCOc1ccc(N(C(=O)c2ccc(Cl)cc2)S(=O)(=O)c2ccc3c(c2)n(C)c(=O)n3C)cc1 3.05%
O=C(CSc1ccc(-c2cccs2)nn1)Nc1ccccc1 1.24%
Cc1ccc(CN(Cc2ccco2)C(=O)c2ccc(Cl)cc2Cl)cc1 -5.14%
COc1ccc(CCNC(=O)Cn2nnc(-c3ccc(Cl)cc3)n2)cc1OC -5.33%
Cc1cccc(-c2nc(CCNC(=O)COc3ccccc3)cs2)c1 -2.81%
COc1ccc(-c2cc(-c3ccccc3)nc(SCC(=O)Nc3ccccc3C)c2C#N)cc1 1.13%
COc1cccc(CNc2nc3ccccc3c3nc(-c4cccc(C)c4)nn23)c1 5.34%
CC(=O)c1cccc(NC(=O)Nc2c(C)n(C)n(-c3ccccc3)c2=O)c1 3.43%
CCOCCCn1c(SCC(=O)Nc2cc(C)ccc2C)nc2c(oc3ccccc32)c1=O 0.357%
COC(=O)c1ccc(NC(=O)CN2CCCN(Cc3ccc(Cl)cc3)S2(=O)=O)cc1 12%
CCN1CCc2c(sc(NC(=O)c3ccc(S(=O)(=O)N(CCOC)CCOC)cc3)c2C(N)=O)C1 9.69%
Cc1ccc(-c2nc3cc(NC(=O)c4cc5ccccc5o4)ccc3o2)cc1Cl 4.15%
CC(NC(=O)CN1C(=O)COc2ccc(S(=O)(=O)N3CCCCCC3)cc21)c1ccccc1 (stereo not drawn) -3.85%
Cc1ccc(Sc2c(C(=O)NCc3cccc(F)c3)[nH]c3ccccc23)cc1 3.08%
CC(C)Oc1ccc(CN2CCc3nc(Nc4ccc5c(c4)OCCO5)ncc3C2)cc1 0%
COc1ccc(OC)c(NC(=O)CSC2=Nc3ccccc3C3=NC(CCC(=O)NCc4ccccc4)C(=O)N23)c1 (stereo not drawn) -0.634%
Cc1nc2ccn(Cc3cccs3)c(=O)c2cc1C(=O)NCc1ccc(Br)cc1 0.265%
O=C(COc1ccc(Cl)cc1)N(Cc1ccco1)Cc1ccco1 -1.23%
Cc1c(C(=O)N(C)C)sc2c1c(=O)n(-c1ccc(Cl)c(Cl)c1)c(=O)n2CC(=O)C(C)(C)C 0.167%
COc1ccccc1CNC(=O)CCC(=O)N1CC(C)Sc2ccccc21 (stereo not drawn) -10.7%
Cc1cccc(N2CCN(C(=O)CN3C(=O)COc4ccc(S(=O)(=O)N5CCC(C)CC5)cc43)CC2)c1C 0.429%
COc1ccc(C(=O)Nc2cccc(-c3cn4ccsc4n3)c2)c(OC)c1 -6.49%
O=S(=O)(Nc1cccc(C(F)(F)F)c1)c1ccc(NS(=O)(=O)c2ccc3c(c2)OCCO3)cc1 -1.96%
Cc1ccc(NC(=O)CSc2nc3ccccc3n2CC(=O)N2CCC(C)CC2)cc1C 0%
CCc1nn(CC(=O)N2CCC(C)CC2)c(=O)c2cc3occc3n12 -9.79%
CCCN(c1ccc(C(C)C)cc1)S(=O)(=O)c1ccc2c(c1)n(C)c(=O)c(=O)n2C -8.7%
Cc1csc2nc(COC(=O)c3cccc(NC(=O)c4cccc(Cl)c4)c3)cc(=O)n12 0%
Cc1ccc(-n2nc3c(N4CCC(C(=O)NC5CCC(C)CC5)CC4)nnc(C)c3c2C)cc1 (stereo not drawn) -1.12%
CCOc1ccc(N(CC(=O)Nc2cc(OC)cc(OC)c2)S(=O)(=O)c2c(C)[nH]c(=O)[nH]c2=O)cc1 -14.4%
CC1=C(C(N)=O)C(c2cccc(O)c2)n2ncnc2N1 (stereo not drawn) -5.74%
COc1ccc(Cl)cc1NC(=O)Cn1c(=O)oc2cc(S(=O)(=O)N3CCCCCC3)ccc21 -0.929%
O=C(c1cccs1)c1cn(CCOc2ccc(Cl)cc2)c2ccccc12 3.23%
Cc1ccc2sc(N(Cc3cccnc3)C(=O)Cc3ccccc3)nc2c1C -2.39%
Cc1ccc(C(=O)c2cn(Cc3ccccc3F)c3cc4c(cc3c2=O)OCCO4)cc1 -13%
COC(=O)c1ccccc1NC(=O)c1cc(C)nc2c1c(C)nn2-c1ccc(C)cc1 3.68%
COc1ccc(OC)c(NC(=O)CSC2=Nc3ccccc3C3=NC(CC(=O)NCc4ccc(F)cc4)C(=O)N23)c1 (stereo not drawn) -0.554%
COc1ccc(C2CC(=O)c3c([nH]c(C(=O)OC4CCCCCC4)c3C)C2)cc1 (stereo not drawn) -0.0597%
COc1cc(OC)c(NC(=O)n2ncc3cc(Cl)ccc32)cc1Cl -1.24%
COc1cccc(OCC(=O)NC2CC(=O)N(c3ccc4c(c3)OCCO4)C2)c1 (stereo not drawn) -2.22%
Cc1ccc(Cl)cc1NC(=O)NCc1cccn1Cc1ccc(F)cc1 -0.368%
O=C(Nc1ccccc1O)c1cc(S(=O)(=O)N2CCCC2)ccc1Cl 4.02%
Cc1ccc2nc(-c3ccc(NC(=O)c4ccccc4S(C)(=O)=O)cc3)sc2c1 3.35%
COc1ccc2c(c1)c1c(c(=O)n(-c3ccc(OC)c(OC)c3)c(=O)n1CC(=O)N1CCCC1)n2C -0.589%
Cc1ccc(CNC(=O)CSc2ncc(S(=O)(=O)c3ccc(C)c(Cl)c3)c(=O)[nH]2)cc1 1.54%
Cc1ccc(NC(=O)N2CCN(c3nnc(C)c4c(C)n(-c5ccc(Cl)cc5)nc34)CC2)c(C)c1 -10.2%
COc1ccc(-c2nc(C)c(CCNC(=O)c3c(F)cccc3F)s2)cc1 -7.58%
CCOc1ccc(OCC)c(NC(=O)CCc2nc3cccnc3n2Cc2cccs2)c1 -22%
CCOC(=O)c1cccc(NC(=O)CC2C(=O)N(c3ccc(C)cc3)C(=O)N2Cc2cccc(OC)c2)c1 (stereo not drawn) -0.951%
COc1cc(Cl)c(C)cc1NC(=O)CSc1nc2c(c(=O)[nH]1)CCCC2 0.0739%
CN(C)c1ccc(CNC(=O)c2cnc3sc(N4CCCCCC4)nn3c2=O)cc1 -13.5%
CCCCNC(=O)CCCn1c(=O)c2ccccc2n(Cc2c(C)cc(C)cc2C)c1=O -13.3%
COC(=O)N1CCCc2cc(S(=O)(=O)N3CCN(c4ccccc4)CC3)ccc21 -5.54%
Cc1ccc(C)c(Cn2c(=O)n(CCC(=O)NCc3ccc4c(c3)OCO4)c(=O)c3sccc32)c1 1.2%
Cc1cccc(Cc2c(C)nc3nc(SCc4ccccc4Cl)nn3c2C)c1 -22.6%
COc1ccc(C2CC(=O)Nc3c2c(=O)n(C)c2nc4ccccc4n32)cc1 (stereo not drawn) 4.6%
COc1ccc(-c2noc(-c3ccc(C)cc3Cl)n2)cc1OC 2.25%
CCOc1ccc(NC(=O)c2sc3ccccc3c2Cl)cc1 2.54%
CS(=O)(=O)n1nc(-c2ccco2)nc1NCc1ccccc1Cl 2.25%
CCOC(=O)c1[nH]c(C)c(C(=O)NCc2cccc(OC)c2)c1C 0.0138%
COc1ccc(CC(=O)NCCc2csc(-c3ccc(C(F)(F)F)cc3)n2)cc1 -8.5%
CCc1ccccc1NC(=O)Cn1c(=O)n(CC(=O)NCCc2ccccc2)c(=O)c2ccccc21 -4.05%
COc1cc(Cl)c(C)cc1NC(=O)CSc1cc(-c2ccccc2)nc(C)n1 0%
COC(=O)c1sc2cccc(F)c2c1S(=O)(=O)Nc1ccc(C)cc1Cl -11.1%
Cc1c(/C=C(\C#N)C(=O)Nc2cccc(Cl)c2)c2ccccc2n1Cc1ccccc1 -4.04%
Cn1c(=O)c2c(SCC(=O)NCc3ccc(F)cc3)nc(-c3ccccc3Cl)nc2n(C)c1=O 1.8%
Cc1ccc(NS(=O)(=O)c2ccc3c(c2)[C@H]2C=CC[C@H]2[C@@H](c2ccc(F)cc2)N3)cc1C -7.47%
COc1ccccc1N1CCN(C(=O)CCn2nc(C)c(S(=O)(=O)N3CCCC3)c2C)CC1 11.1%
O=C(Nc1nnc(C2CC(=O)N(c3ccc(Cl)cc3)C2)s1)c1ccco1 (stereo not drawn) -0.986%
Cc1ccc(SCc2nc(-c3ccc(C(=O)Nc4cc(C)ccc4C)cc3)oc2C)cc1 -2.46%
O=C(Nc1ccc2[nH]c(=O)c(=O)[nH]c2c1)c1cccc(F)c1 1.3%
Cc1ccccc1C1=CCN(c2ncc(NC(=O)c3ccc(Cl)cc3)cc2C(=O)O)CC1 -1.68%
Cc1nc2nc(SCC(=O)NCCc3ccc(Cl)cc3)nn2c(C)c1Cc1ccccc1Cl -0.156%
Cc1nc2c(-c3ccccc3)c(C)nn2c(C)c1CCC(=O)Nc1ccccc1F -10.6%
CC(=O)c1ccc(N2CCN(C(=O)CCn3cnc4onc(-c5ccc(F)cc5)c4c3=O)CC2)cc1 -5.88%
CCOC(=O)c1ccc(NC(=O)CSc2nccn2-c2cc(C)cc(C)c2)cc1 -5.58%
O=C1CC(c2ccc(F)cc2)c2c(c3ccccc3[nH]c2=O)O1 (stereo not drawn) 0.711%
